This is one part of the list. At the low end of the ranking the order means little.

The test deals with T1, GST-NbGlk1(82-244).
T1 sequence: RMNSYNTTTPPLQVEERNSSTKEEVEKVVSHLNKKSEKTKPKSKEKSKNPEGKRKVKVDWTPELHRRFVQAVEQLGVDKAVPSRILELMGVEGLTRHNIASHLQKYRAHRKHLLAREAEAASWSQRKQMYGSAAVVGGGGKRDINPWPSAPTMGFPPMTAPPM
In words: protein-binding microarray.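 Note: rank-based score ranging −0.5 to +0.5 with E above 0.45 taken as significant binding.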 Particulars: NbGlk1 is a Golden2-like transcription factor of Nicotiana benthamiana; high values mean tight binding; most listed sequences are background and not binding sites; double strand, one strand shown.
AGCCAATC had a binding signal of 0.0323 E-score. As for ATTTTTTG, the binding signal amounted to 0.315 E-score. With CACGTAGC the figure was -0.173 E-score; with AGGTTTGG, -0.106 E-score; with ACAGGTTC, -0.127 E-score. Sequence ATTAAGTG returned a binding signal of 0.101 E-score. The figure for ATAGATAA is 0.102 E-score. With ATATACGG the figure was 0.0502 E-score. The figure for ATCTCACA is 0.289 E-score. Regarding CAGACCCA, the binding signal was -0.243 E-score. With AGAATATG the figure was 0.253 E-score. The figure for AGTCAGGC is -0.149 E-score; for AGTTGGTG it is -0.259 E-score; for AAGCGCGT it is -0.07 E-score. With ACTCGCTA the figure was -0.000319 E-score. Turning to AAGTCGGA, the binding signal is -0.157 E-score. The figure for AAGAGTAG is -0.0173 E-score. ATTGCAGA had a binding signal of 0.253 E-score.

For ATCTAGGC, the binding signal was 0.0826 E-score. With ATGCGGGC the figure was -0.163 E-score; with AGACGCAA, 0.0374 E-score. The figure for AAGTCTGG is -0.194 E-score; for AGGTCGTC it is -0.304 E-score. The figure for AATTGGCA is -0.113 E-score; for AGCGGCCG it is -0.22 E-score. Take CAGATCCA: the binding signal came out at 0.23 E-score. Sequence ATCATAAG returned a binding signal of 0.147 E-score.

ACTGACTC: the binding signal is -0.233 E-score. With ATGTCTTG the figure was 0.0564 E-score; with AAATAGAG, 0.039 E-score.

The sequence AAACCGGA showed a binding signal of 0.0925 E-score. With ATTCAGTG the figure was 0.105 E-score; with AAGCACAT, -0.0306 E-score. In the case of ACCGGATA, the binding signal came out at 0.262 E-score. The figure for CAGAGTCC is -0.0643 E-score; for AAGACAAC it is -0.225 E-score; for ACCTTAGG it is -0.0467 E-score.

As for ATCCGGAG, the binding signal stood at 0.233 E-score. Sequence ATCCTTCA had a binding signal of 0.192 E-score.

On to AGAAGTGG, for which the binding signal is -0.197 E-score. With ACAGTCAT the figure was -0.0447 E-score. The figure for ACTATCCT is -0.00837 E-score; for AATCAGCT it is 0.192 E-score; for AGCACGCC it is -0.26 E-score.

ACTACCCA came in with a binding signal of -0.138 E-score.

On to AGGAGGGG, for which the binding signal was -0.225 E-score. The figure for ATCGGCAT is 0.156 E-score. As for AGCAGACA, the binding signal was -0.167 E-score. With AAGCCGGT the figure was -0.217 E-score; with CACCTTCG, -0.27 E-score. Consider CAAGAATA, for which the binding signal amounted to 0.146 E-score. With ACCCCACA the figure was -0.222 E-score; with ACTGCAAT, 0.211 E-score. As for CAACGCGG, the binding signal was -0.161 E-score. The figure for ATAGACTA is -0.0113 E-score; for AAATTGCC it is 0.148 E-score; for AATAGTCC it is -0.0566 E-score. ATGCGGCC showed a binding signal of -0.334 E-score. The figure for ACGGTGGG is -0.0547 E-score. The figure for AATGTGTA is 0.132 E-score; for CAAAAATA it is 0.143 E-score. With ATAGCCCA the figure was 0.0393 E-score; with ACTAAGGG, -0.158 E-score; with ACGACCAA, -0.0382 E-score.

AATTTTCC yielded a binding signal of 0.175 E-score. In turn, CAGATGCA registered a binding signal of -0.12 E-score. The figure for ACGTGGCT is -0.152 E-score. The figure for AGATGGGA is -0.0529 E-score; for ATGAATAG it is -0.0103 E-score; for AGTATTTG it is 0.208 E-score. The figure for ATTCTCTG is 0.358 E-score. Consider AACGACAA, for which the binding signal was determined as 0.0396 E-score. With ATCCCGCA the figure was 0.289 E-score; with ATAAGAAA, 0.112 E-score. The figure for AATACGTA is 0.165 E-score; for ACACCCGA it is -0.175 E-score. The figure for ATACTGCC is 0.0301 E-score; for AACTTCGC it is 0.0397 E-score. In turn, AATGATTG gave a binding signal of 0.0725 E-score. With ATCACGCA the figure was 0.163 E-score; with AACGCCTA, -0.126 E-score; with AGGAAAGA, -0.124 E-score. With ACGTGCTC the figure was -0.166 E-score; with AAGGGAGG, -0.161 E-score. With ATATTCCG the figure was 0.36 E-score; with AGCGTAAC, -0.0111 E-score.

Regarding ACAACACA, the binding signal is 0.0999 E-score.

For the sequence ATCAACTC, the binding signal came out at 0.0894 E-score. The sequence ACGCGAAG displayed a binding signal of -0.0403 E-score.

AATGGTGC: the binding signal is -0.217 E-score. The figure for ATAATACC is 0.0183 E-score.

Sequence AATGGATC yielded a binding signal of 0.152 E-score.

Regarding ATTAGGAA, the binding signal came out at 0.0217 E-score. In turn, CAAAGCTG showed a binding signal of -0.0649 E-score. In turn, ATGCCTGC displayed a binding signal of -0.147 E-score. With AGCAAAAA the figure was -0.0149 E-score; with ACCGCCAG, -0.118 E-score; with ACGCGAGC, -0.113 E-score. With CACAAACC the figure was 0.0339 E-score; with ATCTGTAC, 0.32 E-score. With AGTGATGG the figure was -0.114 E-score.

As for ATAGTACG, the binding signal was -0.00778 E-score. The figure for AGTGCATC is -0.0849 E-score. With ACGTCAGG the figure was -0.0944 E-score; with ACCGCCTA, -0.0787 E-score; with AGGTGGTA, -0.059 E-score. AATCCCCC: the binding signal is 0.215 E-score. The figure for AATTATGA is 0.075 E-score; for ATCGTTTA it is 0.154 E-score; for AGCATAGA it is 0.0316 E-score. With ACGGGCCT the figure was -0.26 E-score; with AATAGATC, 0.247 E-score.

Regarding AGAGCTGA, the binding signal is -0.149 E-score. With ATTGTTAA the figure was 0.167 E-score; with AGAAGTCC, -0.11 E-score; with CACTAACG, -0.0933 E-score.

The sequence AGAGCCGG gave a binding signal of -0.284 E-score.

ATCACTGC returned a binding signal of 0.0571 E-score.

In turn, AGTATCCG gave a binding signal of 0.328 E-score. In turn, ATACACCG registered a binding signal of 0.0886 E-score. With AACGCAGA, the binding signal came to 0.0909 E-score.

The sequence AAGTAAGC returned a binding signal of 0.0576 E-score. AGCTTGTC had a binding signal of -0.173 E-score.

AGCCAGCC yielded a binding signal of -0.315 E-score. The figure for ATCTGTGG is 0.0582 E-score.

Sequence AACTATTC showed a binding signal of 0.0588 E-score. With AACCTACT the figure was -0.121 E-score; with ATTTTTAA, 0.221 E-score. For ACCTTACA, the binding signal was -0.151 E-score. ACGGGCAC had a binding signal of -0.216 E-score. With CAGCCTGC the figure was -0.271 E-score; with AGAGAGAT, 0.241 E-score; with AACTCTCG, -0.139 E-score. With ACGCATAT the figure was 0.135 E-score; with ATATATTA, 0.229 E-score; with AGCCCGCA, -0.24 E-score. With ATCTAACA the figure was 0.189 E-score. For the sequence ATTTTTCA, the binding signal came out at 0.253 E-score. Take ATGCACCG: the binding signal is -0.0282 E-score. For the sequence ATTCAGCC, the binding signal was -0.125 E-score. The figure for AGGACGGG is -0.199 E-score; for AGGCCGTG it is -0.0812 E-score.

Sequence AATTTGGC showed a binding signal of 0.0936 E-score. The figure for AGTCGAAA is 0.00178 E-score; for ACTTTATC it is -0.113 E-score; for AGATGGTG it is -0.159 E-score. Sequence CAGCGTAA came in with a binding signal of 0.0765 E-score.

As to AGCAGTAG, the binding signal is -0.164 E-score.

With AACCGGCA, the binding signal is -0.0824 E-score.

CAATGTCC had a binding signal of -0.122 E-score.

Sequence ATGGAAGC displayed a binding signal of -0.232 E-score. With ATCATTTC the figure was 0.0315 E-score; with AGGGACAA, -0.0574 E-score; with CACCGTCC, -0.0564 E-score. AAACGTTG returned a binding signal of -0.0651 E-score. ATGCCGTC had a binding signal of -0.0301 E-score.

For ACCTGCTG, the binding signal is -0.219 E-score. With ACTAGCGA the figure was -0.114 E-score.

As to AATTGCGC, the binding signal was determined as 0.227 E-score. With ACGGAGCG the figure was -0.123 E-score; with AGCTTGGA, -0.0781 E-score. The figure for ACAATCTC is 0.373 E-score; for ACGAAACC it is -0.0433 E-score; for ACCCAGCT it is -0.0896 E-score. The figure for AAGCCGTA is -0.118 E-score; for AAACACCT it is -0.0521 E-score; for ATTTCTGA it is 0.2 E-score. Sequence AGCGTCCA returned a binding signal of -0.0922 E-score. The figure for AAAGACGG is -0.0789 E-score; for AAAGACCA it is -0.106 E-score.

As to AAATGGGC, the binding signal was -0.112 E-score. With ACAGTTCG the figure was 0.0148 E-score.

The values are drawn from publication PMC5836133.
